# According to PMC4336329 (PLoS ONE, 2015):
# About 2,200 (0.71%) of roughly 310,000 compounds showed an effect of 50% or more. Effects have a minus sign here. The list shows a part of the results.
# Target: human ether-à-go-go-related gene (hERG) potassium channel (human, UniProt Q12809)
# Test: primary screen, population patch clamp on CHO cells stably expressing hERG
# Sequence of human ether-à-go-go-related gene (hERG) potassium channel (Q12809 whole entry, looked up): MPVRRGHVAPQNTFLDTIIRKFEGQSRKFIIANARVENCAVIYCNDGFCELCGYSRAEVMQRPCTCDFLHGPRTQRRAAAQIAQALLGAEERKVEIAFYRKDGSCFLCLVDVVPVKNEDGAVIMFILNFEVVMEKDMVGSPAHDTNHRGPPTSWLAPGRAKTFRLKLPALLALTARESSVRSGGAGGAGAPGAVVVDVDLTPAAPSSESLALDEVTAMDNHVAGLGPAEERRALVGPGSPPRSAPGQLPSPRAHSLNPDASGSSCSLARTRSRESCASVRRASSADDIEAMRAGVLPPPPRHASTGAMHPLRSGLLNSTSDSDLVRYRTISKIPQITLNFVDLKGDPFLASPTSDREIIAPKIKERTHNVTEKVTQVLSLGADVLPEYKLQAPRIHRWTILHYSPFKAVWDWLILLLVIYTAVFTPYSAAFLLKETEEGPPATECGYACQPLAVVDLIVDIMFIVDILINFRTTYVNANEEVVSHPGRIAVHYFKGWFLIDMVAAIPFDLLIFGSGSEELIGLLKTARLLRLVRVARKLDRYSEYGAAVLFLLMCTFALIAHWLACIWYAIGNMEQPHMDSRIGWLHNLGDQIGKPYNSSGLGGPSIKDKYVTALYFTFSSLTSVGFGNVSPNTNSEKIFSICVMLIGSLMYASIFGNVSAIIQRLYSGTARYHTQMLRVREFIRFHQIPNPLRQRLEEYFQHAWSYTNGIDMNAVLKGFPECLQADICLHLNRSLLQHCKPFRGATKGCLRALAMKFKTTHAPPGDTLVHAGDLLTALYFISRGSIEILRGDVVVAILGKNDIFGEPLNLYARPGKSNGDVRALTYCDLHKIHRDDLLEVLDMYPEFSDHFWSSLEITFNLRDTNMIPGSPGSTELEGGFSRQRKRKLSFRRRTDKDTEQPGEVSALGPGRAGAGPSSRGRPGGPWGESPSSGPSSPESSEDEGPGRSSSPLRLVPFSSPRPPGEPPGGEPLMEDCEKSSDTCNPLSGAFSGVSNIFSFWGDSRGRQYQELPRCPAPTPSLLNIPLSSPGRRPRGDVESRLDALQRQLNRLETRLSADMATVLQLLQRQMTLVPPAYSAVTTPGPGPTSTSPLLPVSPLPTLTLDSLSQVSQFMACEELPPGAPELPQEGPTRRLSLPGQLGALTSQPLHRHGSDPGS
row,Compound,"hERG current change (%, negative = inhibition) at 1uM"
1,CCN(CC(=O)NCCc1ccc(S(N)(=O)=O)cc1)Cc1nc2cc(OC)c(OC)cc2c(=O)[nH]1,8.01%
2,COc1cccc(-n2nnc3c(=O)n(CC(=O)NCC4CCCO4)cnc32)c1 (stereo not drawn),13.8%
3,c1cc(CNc2ccc3c(c2)OCCO3)ccn1,15.6%
4,CN(CC(=O)Nc1cccc(F)c1)C(=O)CSc1ccccc1,9.93%
5,COc1cc(C(=O)N/N=C/c2cccc(Oc3ccccc3)c2)ccc1O,14%
6,COc1cc2[nH]c(C(=O)N3CCC(Cc4ccccc4)CC3)cc2c(OC)c1OC,18.3%
7,Cc1[nH]c2ccccc2c1CCN(Cc1cccnc1)C(=S)NC(C)(C)C,15.2%
8,CSCc1cc(N2CCCC2)nc(-c2ccccc2)n1,9.08%
9,CCOC(=O)C1=C(C)NC(=O)NC1c1ccccc1Cl (stereo not drawn),13%
10,CC1(C)CC(NC(=O)c2ccc(-c3ccc([N+](=O)[O-])cc3)o2)CC(C)(C)N1,-3.5%
11,Cc1ccc(C(CC(=O)NCc2ccco2)c2ccccc2)c(O)c1 (stereo not drawn),3.09%
12,Cc1nnc(SCC(=O)NNC(=O)c2ccco2)n1-c1cccc(Cl)c1,13.7%
13,CN(C)CCSc1nc(N)c2c3c(sc2n1)COC(C)(C)C3,-7.27%
14,Cc1ccc(S(=O)(=O)Nc2ccc(C(=O)NCc3cccnc3)cc2)cc1,10.9%
15,COc1ccc(N/N=C/c2c(O)n(-c3cccc(C)c3)c(=O)[nH]c2=O)cc1,2.88%
16,CN(C)CCCN=Cc1c(O)n(CCc2ccccc2)c(=O)[nH]c1=O,7.97%
17,Cc1nc(SCC(O)CCl)c([N+](=O)[O-])[nH]1 (stereo not drawn),11.2%
18,COc1ccc(N2CCN(C(=O)c3c(C)nn(-c4ccccc4)c3C)CC2)cc1,11.5%
19,CCOC(=O)c1sc2nccc(N(C)C)c2c1N=CNOC,4%
20,CC(=O)Nc1ccc(S(=O)(=O)Nc2cccc(-c3cn4c(n3)SCC4)c2)cc1,19.8%
21,COc1ccc(C(=O)c2ccc3oc(-c4ccc(OC)cc4)c(C#CCCO)c3c2)cc1,14%
22,O=S(=O)(c1ccccc1)N1CCN(C(c2ccccc2)c2ccc(OC(F)(F)F)cc2)CC1 (stereo not drawn),9.37%
23,Cc1cc(NC(=O)CCC(=O)N(CC2CCCO2)C(C(=O)NC2CCCC2)c2cccnc2)no1 (stereo not drawn),14.2%

row,Compound,"hERG current change (%, negative = inhibition) at 1uM"
1,O=C1C(NS(=O)(=O)c2cccs2)=C(N2CCN(Cc3ccccc3)CC2)C(=O)c2ccccc21,5.43%
2,CCC(CC)=NNc1cccc([N+](=O)[O-])c1,7.41%
3,O=C1c2ccccc2C(=O)N1CCC#Cc1ccc2cc(CCO)oc(=O)c2c1,12.8%
4,COc1ccc(-c2cn(-c3ccc(C)cc3C)c(=O)[nH]2)cc1OC,8.04%
5,O=C(CNC(=O)c1cccc(F)c1)N/N=C/c1cccnc1,13.5%
6,CCCCNC(=O)NNC(=O)c1ccc(F)cc1,12%
7,CCN1CCSc2ccc(C(=O)NCc3ccccc3F)cc21,4.43%
8,CCCCn1c(=O)[nH]c(=O)c2c1nc(-c1ccccc1F)n2Cc1ccccc1,8.83%
9,CCC(C(=O)OCC(=O)NC(=O)c1ccccc1OC)c1ccccc1 (stereo not drawn),18.1%
10,Cc1ccc(C)c(N2CCN(S(=O)(=O)c3cccc4cccnc34)CC2)c1,0.21%
11,Cc1ccccc1SCC(=O)NCCCn1ccnc1,8.54%
12,O=C(CSc1nc2ccccc2c(=O)n1-c1ccccc1)N1CCCC1,8.39%
13,CCNC(=O)N1CCN(CCCC(c2ccc(F)cc2)c2ccc(F)cc2)CC1.Cl,-90.3%
14,CC(OC(=O)CN1C(=O)NC2(CCCC2)C1=O)C(=O)c1ccc(C(C)(C)C)cc1 (stereo not drawn),-6.44%
15,O=C1CC(c2ccccc2)c2cc(O)ccc2O1 (stereo not drawn),11.4%
16,O=C(NCc1ccc2c(c1)OCO2)c1cc2ccccc2o1,12.8%
17,Oc1ccc(Nc2nc(Cl)nc(NCc3ccco3)n2)cc1,1.55%
18,COc1ccc(-c2cn3cccnc3n2)cc1NC(=O)c1cccs1,4.09%
19,O=C(CCC(=O)c1ccc(F)cc1)OCc1nnc(-c2ccc([N+](=O)[O-])cc2)o1,1.72%
20,CCC(Oc1ccc(Br)cc1Cl)C(=O)Nc1nnc(C2CC2)s1 (stereo not drawn),10.3%
21,CCn1c(SCC(=O)Nc2nc3ccc(C)cc3s2)nc2c(c1=O)SC(C)C2 (stereo not drawn),3.68%
22,COc1cccc(N2CCN(CC(=O)NC(C)c3ccccc3)CC2)c1 (stereo not drawn),10%
23,O=C(O)c1nc(N2CCOCC2)nc(N2CCOCC2)n1,2.06%

row,Compound,"hERG current change (%, negative = inhibition) at 1uM"
1,Cn1ncc(C#N)c1NC(=O)C1CC(c2ccc(Cl)cc2)=NO1 (stereo not drawn),6.73%
2,CCOC(=O)C1CCN(CC(O)COc2ccc(C(=O)CC)cc2)CC1.Cl (stereo not drawn),-49.5%
3,O=c1[nH]c(=S)n(C2CC2)c(O)c1C=NCc1cccnc1,10.7%
4,CC(=O)c1cccc(NC(=O)COC(=O)c2ccccc2C)c1,6.82%
5,O=S(=O)(Nc1nc2ccccc2s1)c1ccc(Cl)nc1,-1.94%
6,COCCNC(=S)N/N=C/c1c2ccccc2cc2ccccc12,16.1%
7,O=C(CCc1nc2sc3c(c2c(=O)[nH]1)CCCC3)Nc1ccccc1Cl,5.44%
8,Cn1c(N)c(C(=O)COC(=O)c2cc(-c3ccco3)nc3ccccc23)c(=O)n(Cc2ccccc2)c1=O,5.9%
9,CSc1nc(N(C)C)nc(N(C#N)CCOC(C)=O)n1,5.11%
10,Cn1c(=O)n(C)c2cc(C(=O)c3ccccc3)ccc21,3.35%
11,COc1ccc(N2CC(NC(=O)NC(C)(C)C)CC2=O)cc1 (stereo not drawn),10.1%
12,O=C(CSc1nc2ccccc2s1)N/N=C/c1ccco1,13.9%
13,COc1ccc(-c2csc(NC(=O)CN3C(=O)CCC3=O)n2)c(OC)c1,10.6%
14,CCS(=O)(=O)N1CCC(C(=O)NCCCN2CCC(Cc3ccccc3)CC2)CC1,-43.2%
15,Cn1cccc1-c1cc(C(=O)N/N=C/c2cc(Br)ccc2O)[nH]n1,22.7%
16,Brc1ccc(-c2cnc(-c3cccs3)o2)cc1,2.8%
17,O=C(COc1ccc2c(c1)CCC2)N1CCN(c2ccc(F)cc2)CC1,4.48%
18,COC(=O)c1ccc2c(=O)[nH]c(CCl)nc2c1,11.4%
19,COc1cc(OC)c(CN2CCCCCCC2)cc1Br,0.256%
20,COC(=O)C(NC(=O)CNS(=O)(=O)c1ccc(Br)cc1)c1ccccc1 (stereo not drawn),10.3%
21,CCc1cc2c(=O)[nH]c(CC(N)=O)nc2s1,17.4%
22,Cc1ccc(C(=O)OCC(=O)Nc2ncc(Cl)cc2Cl)cc1NC(=O)c1ccco1,-13.9%
23,COc1ccc2c(c1)c(N=O)c(O)n2C,15%

row,Compound,"hERG current change (%, negative = inhibition) at 1uM"
1,Fc1ccc(-n2nnc(-c3ccccc3)n2)cc1,15.7%
2,O=C(/C=C/c1ccccc1Cl)NC(=S)Nc1ccccc1C(=O)NC1CCCCC1,13.9%
3,CC(=O)NC(c1cccs1)c1cc([N+](=O)[O-])c2cccnc2c1O (stereo not drawn),11.7%
4,COc1ccc(Cc2nc3ccccc3c(=O)n2N)cc1OC,16.5%
5,CCCC(=O)Nc1nnc(-c2ccc3c(c2)OCO3)s1,10.2%
6,Cc1cccc(-c2noc(-c3ccc(Cl)cc3[N+](=O)[O-])n2)c1,15.5%
7,CC(C)c1ccc(NC(=S)NNC(=O)C2CC2)cc1,16.3%
8,CC(Nc1c[nH]c(=O)[nH]c1=O)c1ccccc1 (stereo not drawn),14.1%
9,Cc1cccc(NCC(=O)N/N=C/c2ccc(Br)cc2)c1,10.5%
10,O=C(C(=O)N1CCN(c2ccc([N+](=O)[O-])cc2)CC1)c1cn(CC(=O)N2CCOCC2)c2ccccc12,-1.14%
11,NC(=O)CN(c1ccccc1)C1SC(=O)N(Cc2ccccc2)C1=O (stereo not drawn),5.06%
12,S=C(Nc1ccc(Cl)cc1)c1sc(N2CCCCC2)nc1N1CCOCC1,4.37%
13,O=C(O)CC1NC(=O)N(C2CCCCC2)C1=O (stereo not drawn),7.4%
14,COc1ccc(/C=C(/NC(=O)c2ccccc2)C(=O)N2CCCCC2)cc1OC,10.9%
15,CC(C)(C)C(=O)Nc1ccc(S(=O)(=O)N2CC3CC(C2)c2cccc(=O)n2C3)cc1 (stereo not drawn),6.28%
16,CC1CCC(C(C)C)C(OP(=O)(c2ccccc2)C(O)c2ccncc2)C1 (stereo not drawn),7.2%
17,CC(=O)N1CCN(Cc2cc(=O)n3cc(Cl)c(C)c(Cl)c3n2)CC1,-10.7%
18,Cc1ccccc1NC(=O)Cc1nc(COC(=O)CSc2ccccc2)cs1,6.65%
19,O=C(Nc1ccc(Br)cn1)C1CCN(S(=O)(=O)c2cccs2)CC1,-2.33%
20,C=C(C)Cn1c(N(CCO)Cc2ccccc2)nc2c1c(=O)[nH]c(=O)n2C,7.92%
21,O=C(N/N=C\c1ccc(CNS(=O)(=O)c2ccc(Cl)cc2)o1)C(=O)Nc1ccc(Oc2ccccc2)cc1,14.5%
